# Some of the results follow.
# B1: PX15618B-bfa-464-25-464 (Bacteroides fragilis) (protein)
# chain: DQEPPLYVNENDIFTSPTRIEATLNGLYAAIKNTGTKSLMGGKSYLVFDNRGDDVINISNNLVTLFNTYNMNVGITDAENADTWTYAYLAINKVNTFLQSLEGAREVAGENYDRYVQEAKFVRALAYYYLNNLYPTPYSVNPDAKSVPLRLTAEAGTENNNMPRSTVKQIYEHILSDLENISALDTEVNTYTGVTHATQAAANMLKMRVYMAMNEWDKAITAGELVTGYSLPEDVTLIYKAPYFSQESIFSLPMADTNIPNTQQSLAEYYYDGKIMLIDTKSGIMSKPDYSLATDKRIIAFKGEKDLLMKFTDAKTKLQWVPIFRYAETLLDLAECYANKAGGEATAKSLLKQVRGRSVDAATDPLNIDNLSGDALKEAIYNEKRLEFIGEGIRGIDIMRRGEHFIKVGENETINVGPSDEKYTWPIPQVELLLNKDINK
# Experiments:
# Test in all cases: glycan array binding signal (z-score within array); higher = stronger binding
# Details in all cases: glycan notation: IUPAC condensed, linker removed
# GalNAc(b1-3)Gal = target: GalNAc(b1-3)Gal
# In short: (§1)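 From the Consortium for Functional Glycomics database, 3228 arrays were curated, keeping only those whose protein sequence was available. Binding is given as a within-array Z-score averaged across arrays sharing a protein sequence and across linkers. Negative Z-scores can be read as non-binding.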
# [1] = target: GalNAc(b1-3)Gal(a1-4)Gal(b1-4)GlcNAc
# In short: as §1
# [2] = target: GalNAc(b1-3)Gal(a1-4)Gal(b1-4)GlcNAc(b1-3)Gal(b1-4)Glc
# In short: as §1
# [3] = target: GalNAc(b1-3)Gal(a1-6)Gal(b1-4)Glc
# In short: as §1
# GalNAc(b1-3)GalNAc = target: GalNAc(b1-3)GalNAc
# In short: as §1
# GalNAc(b1-3)GlcNAc = target: GalNAc(b1-3)GlcNAc
# In short: as §1
# GalNAc(b1-4)Gal(b1-4)Glc = target: GalNAc(b1-4)Gal(b1-4)Glc
# In short: as §1
# GalNAc(b1-4)GlcNAc = target: GalNAc(b1-4)GlcNAc
# In short: as §1
# [4] = target: GalNAc(b1-4)GlcNAc(b1-2)Man
# In short: as §1
# [5] = target: GalNAc(b1-4)GlcNAc(b1-2)Man(a1-3)[GalNAc(b1-4)GlcNAc(b1-2)Man(a1-6)]Man(b1-4)GlcNAc(b1-4)GlcNAc
# In short: as §1
# [6] = target: GalNAc(b1-4)GlcNAc(b1-3)GalNAc(b1-4)GlcNAc
# In short: as §1
# GalNAc(b1-4)GlcNAc6S = target: GalNAc(b1-4)GlcNAc6S
# In short: as §1
# GalNAc(b1-6)GalNAc = target: GalNAc(b1-6)GalNAc
# In short: as §1
# GalNAc3S(b1-4)GlcNAc = target: GalNAc3S(b1-4)GlcNAc
# In short: as §1
# GalNAc3S(b1-4)GlcNAc3S = target: GalNAc3S(b1-4)GlcNAc3S
# In short: as §1
# [7] = target: GalNAc3S(b1-4)[Fuc(a1-3)]GlcNAc
# In short: as §1
# GalNAc4S6S(b1-4)GlcNAc = target: GalNAc4S6S(b1-4)GlcNAc
# In short: as §1
# GalNAc6S(b1-4)GlcNAc = target: GalNAc6S(b1-4)GlcNAc
# In short: as §1
# Glc(a1-4)Glc = target: Glc(a1-4)Glc
# In short: as §1
# [8] = target: Glc(a1-4)Glc(a1-4)Glc(a1-4)Glc
# In short: as §1
# Glc(a1-6)Glc(a1-6)Glc = target: Glc(a1-6)Glc(a1-6)Glc
# In short: as §1
# [9] = target: Glc(a1-6)Glc(a1-6)Glc(a1-6)Glc
# In short: as §1
# Glc(b1-4)Glc = target: Glc(b1-4)Glc
# In short: as §1
# Glc(b1-6)Glc = target: Glc(b1-6)Glc
# In short: as §1
# GlcA(b1-3)Gal = target: GlcA(b1-3)Gal
# In short: as §1
# GlcA(b1-3)GlcNAc = target: GlcA(b1-3)GlcNAc
# In short: as §1
# GlcA(b1-6)Gal = target: GlcA(b1-6)Gal
# In short: as §1
# [10] = target: GlcA3S(b1-3)Gal(b1-4)GlcNAc(b1-2)Man
# In short: as §1
# [11] = target: GlcA3S(b1-3)Gal(b1-4)GlcNAc(b1-3)Gal(b1-4)Glc
# In short: as §1
# [12] = target: GlcNAc(a1-3)Gal(b1-4)GlcNAc
# In short: as §1
# [13] = target: GlcNAc(a1-4)Gal(b1-3)GlcNAc
# In short: as §1
# [14] = target: GlcNAc(a1-4)Gal(b1-4)GalNAc
# In short: as §1
# [15] = target: GlcNAc(a1-4)Gal(b1-4)GlcNAc
# In short: as §1
# [16] = target: GlcNAc(a1-4)Gal(b1-4)GlcNAc(b1-3)Gal(b1-4)Glc
# In short: as §1
# [17] = target: GlcNAc(a1-4)Gal(b1-4)GlcNAc(b1-3)Gal(b1-4)GlcNAc
# In short: as §1
# [18] = target: GlcNAc(a1-4)Gal(b1-4)GlcNAc(b1-3)Gal(b1-4)GlcNAc(b1-3)Gal(b1-4)GlcNAc
# In short: as §1
# [19] = target: GlcNAc(a1-4)Gal(b1-4)GlcNAc(b1-3)Gal(b1-4)[Fuc(a1-3)]GlcNAc(b1-3)Gal(b1-4)[Fuc(a1-3)]GlcNAc
# In short: as §1
# [20] = target: GlcNAc(a1-6)Gal(b1-4)GlcNAc
# In short: as §1
binder,measurement,setting,value
B1,glycan array binding signal (z-score),GalNAc(b1-3)Gal,-0.246
same,glycan array binding signal (z-score),[1],0.922
same,glycan array binding signal (z-score),[2],-0.421
same,glycan array binding signal (z-score),[3],-0.269
same,glycan array binding signal (z-score),GalNAc(b1-3)GalNAc,0.556
same,glycan array binding signal (z-score),GalNAc(b1-3)GlcNAc,-0.627
same,glycan array binding signal (z-score),GalNAc(b1-4)Gal(b1-4)Glc,-0.411
same,glycan array binding signal (z-score),GalNAc(b1-4)GlcNAc,-0.531
same,glycan array binding signal (z-score),[4],0.379
same,glycan array binding signal (z-score),[5],0.631
same,glycan array binding signal (z-score),[6],-0.232
same,glycan array binding signal (z-score),GalNAc(b1-4)GlcNAc6S,-0.233
same,glycan array binding signal (z-score),GalNAc(b1-6)GalNAc,0.227
same,glycan array binding signal (z-score),GalNAc3S(b1-4)GlcNAc,-0.132
same,glycan array binding signal (z-score),GalNAc3S(b1-4)GlcNAc3S,0.172
same,glycan array binding signal (z-score),[7],-0.115
same,glycan array binding signal (z-score),GalNAc4S6S(b1-4)GlcNAc,-0.388
same,glycan array binding signal (z-score),GalNAc6S(b1-4)GlcNAc,-0.532
same,glycan array binding signal (z-score),Glc(a1-4)Glc,0.085
same,glycan array binding signal (z-score),[8],0.287
same,glycan array binding signal (z-score),Glc(a1-6)Glc(a1-6)Glc,-0.394
same,glycan array binding signal (z-score),[9],0.025
same,glycan array binding signal (z-score),Glc(b1-4)Glc,-0.138
same,glycan array binding signal (z-score),Glc(b1-6)Glc,-0.497
same,glycan array binding signal (z-score),GlcA(b1-3)Gal,-0.103
same,glycan array binding signal (z-score),GlcA(b1-3)GlcNAc,0.019
same,glycan array binding signal (z-score),GlcA(b1-6)Gal,-0.346
same,glycan array binding signal (z-score),[10],-0.317
same,glycan array binding signal (z-score),[11],-0.127
same,glycan array binding signal (z-score),[12],-0.417
same,glycan array binding signal (z-score),[13],0.082
same,glycan array binding signal (z-score),[14],0.543
same,glycan array binding signal (z-score),[15],-0.125
same,glycan array binding signal (z-score),[16],-0.196
same,glycan array binding signal (z-score),[17],-0.455
same,glycan array binding signal (z-score),[18],-0.175
same,glycan array binding signal (z-score),[19],0.561
same,glycan array binding signal (z-score),[20],-0.455
